According to ChEMBL document CHEMBL4888484, “Replenishing the malaria drug discovery pipeline: Screening and hit evaluation of the MMV Hit Generation Library 1 (HGL1) against asexual blood stage Plasmodium falciparum ,using a nano luciferase reporter read-out” (2022):
Screen size: about 150,000 compounds; about 540 (0.36%) showed an effect of 50% or more. The list shows a part of the results.

tested on: Plasmodium falciparum; experiment: Primary screen in NF54 nanoGlo assay, in single point, at 2uM, 72h; a lower Z score goes with more inhibition; type: functional, Erythrocyte; settings: timepoint 72 hour

| Structure (SMILES) | % Inhibition [%] | Z score |
| --- | --- | --- |
| CCN(Cc1nc(-c2cc(F)cc(F)c2)oc1C)C[C@H]1CCCO1 | 18 | -2.37 |
| O=C(NCCn1cc(Cl)cn1)c1c[nH]nc1-c1ccccc1 | -4 | 0.71 |
| O=C(NC[C@H]1CCCO1)N(Cc1ccsc1)CC(F)(F)F | 4 | -0.51 |
| O=C(c1csc(Nc2ccncc2)n1)N1CCN(C2CCCCC2)CC1 | 18 | -2.85 |
| COc1ccc(Cc2nc3nccc(-c4ccncc4)n3n2)cc1 | 0 | 0.06 |
| O=C(Nc1nnc(CCC2CCCCC2)s1)C1CCCCC1 | -10 | 1.41 |
| CC(C)C[C@H]1CC(=O)Nc2c1c(=O)[nH]n2C(C)C | 32 | -3.58 |
| Cc1n[nH]c(=O)c(C(=O)NC2CCCCCC2)c1C | 10 | -1.35 |
| CC1(C)Cc2[nH]ncc2CN(CCc2ccc(F)c(F)c2)C1 | -3 | 0.46 |
| COc1ccc(CN2CC(N3CCCC[C@@H]3C)C2)cc1Cn1cccn1 | -2 | 0.24 |
| CCN(C(=O)[C@H]1CC(=O)N(c2ccc(C)cc2)C1)c1ccccc1C | -7 | 0.96 |
| CC1=C(c2ccccc2)[C@H]1C(=O)NCC(C)(C)N1CCCC1 | -8 | 1.45 |
| Cc1nc(-n2nc(-c3ccco3)cc2N)[nH]c(=O)c1C | -16 | 1.82 |
| O=C(c1cncc(F)c1)N1CCC(=C2CC2)CC1 | 0 | 0.06 |
| Cn1ccnc1C(=O)NCCOc1ccccc1Cl | -10 | 1.7 |
| CC(=O)c1c(F)cccc1-n1cc[n+](CCCOc2ccc(C(C)(C)C)cc2)c1 | 9 | -1.55 |
| OC(CNC1CCCn2ccnc21)COc1ccccc1Br (centres undefined) | 4 | -0.77 |
| CC[C@H](C)[C@H](NC(=O)C(C)Cc1c(C)noc1C)C(=O)O (some centres undefined) | -21 | 2.1 |
| CCC[C@@]1(C2CCN(C(=O)C(=O)c3ccccc3)CC2)NC(=O)N(CCc2ccccn2)C1=O | -3 | 0.39 |
| Cc1ccc(CN(CCc2ccccc2)C(=O)CN(CCN2CCCCC2)C(=O)C2CCCC2)o1 | -3 | 0.22 |
| Cc1cnc2c(c1)N(C(=O)c1cnn(C(C)C)c1C)CC2 | -7 | 1.34 |

| Structure (SMILES) | % Inhibition [%] | Z score |
| --- | --- | --- |
| CCN(CC)CC(=O)Nc1c(C)cc(N)cc1C | -34 | 3.94 |
| C[C@@H](CC(=O)NCCNC(=O)Cc1ccccc1)c1cccc(F)c1 | 0 | 0.07 |
| COc1cc(NC(=O)COC[C@H]2CCCO2)c(F)cc1C#N | -5 | 0.81 |
| O=C1c2ccccc2C(=O)N1CCn1nc(C(F)(F)F)ccc1=O | 2 | -0.28 |
| CC1CCN([C@@H]2[C@H](O)[C@H](CO)O[C@@H]2CNC(=O)c2ccc(F)c(Cl)c2)CC1 | -9 | 1.42 |
| CCOC(=O)C(C(=O)OCC)N(C)S(=O)(=O)c1cnn(CC)c1 | -1 | 0.14 |
| COc1cccc(N2CCC(N3C[C@H](C(=O)O)[C@@H](C4CC4)C3)CC2)c1 | -7 | 1.23 |
| CCc1cc(Cl)ccc1NC(=O)N1CC[C@]2(CCN(C)C2)C1 | -12 | 1.27 |
| CCn1cc([C@H](CC(=O)N2CCN(Cc3ccc4c(c3)OCO4)CC2)c2cccc(OC)c2)c2ccccc21 | 32 | -0.17 |
| O=C(c1cncnc1C1CC1)N1CCCCCO1 | -3 | 0.58 |
| CC(C)c1noc(CNc2cc(Cl)ccc2N2CCC(CO)CC2)n1 | -6 | 0.84 |
| CCN(CC)S(=O)(=O)c1ccc(N2CCOCC2)c(NC(=O)C2=COCCO2)c1 | 24 | -2.85 |
| Cc1cc(NC[C@H](C)n2nc(C)cc2C)nc(N(C)C)n1 | -10 | 1.09 |
| Cc1cc(C)c2c(CC(=O)NCCc3cnn[nH]3)coc2c1C | -3 | 0.34 |
| NC(=O)C[C@]1(O)CCCN(Cc2ncc(C(F)(F)F)s2)C1 | -10 | 1.6 |
| COC[C@H](NCc1cn(CCC(N)=O)c2ccccc12)c1ccnn1C | -3 | 0.44 |
| Cc1cc(F)ccc1-n1ccc(C(=O)N2CCC[C@H]2CO)n1 | -5 | 0.92 |
| O=C([C@H]1CCCO1)N1CCC(N(C(=O)[C@H]2CCCO2)C2CC2)C1 (some centres undefined) | -4 | 0.73 |
| O=C1NC[C@@H](C(=O)NCCS(=O)(=O)c2ccccc2F)O1 | -3 | 0.39 |
| CC[C@H](NC(=O)c1ccccc1-c1ccccc1)c1ccccn1 | 9 | -0.86 |
| CN1CCN(c2ncnc(-c3ccccc3F)c2N)CC1 | -13 | 1.79 |
